# The list shows a part of the results.
# Experiments:
# HSkMC = human skeletal muscle cells; assay: cytotoxicity call (relative viability < 0.9); conditions: 10 µM
# S. aureus RN4220 = assay: growth inhibition call (relative growth <= 0.2); conditions: 50 µM
SMILES,cytotoxicity call (HSkMC),growth inhibition call (S. aureus RN4220)
C[C@@H]1CN([C@H](C)CO)C(=O)Cc2cc(NS(=O)(=O)c3ccccc3)ccc2O[C@@H]1CN(C)S(C)(=O)=O,inactive,inactive
CNC(=O)C(=O)Nc1ccc(C)c(F)c1,inactive,inactive
C[C@H](O)C#Cc1ccc2c(c1)O[C@H](CN(C)C(=O)CN(C)C)[C@@H](C)CN([C@@H](C)CO)S2(=O)=O,inactive,inactive
Cc1c(C(N)=O)nnn1-c1ccc(F)cc1,inactive,inactive
COc1ccc(NC(=O)Nc2cccc3c2O[C@H](CN(C)S(C)(=O)=O)[C@@H](C)CN([C@H](C)CO)C3=O)cc1,inactive,inactive
CCc1c(C)[nH]c2ncnn2c1=O,inactive,inactive
C[C@@H]1CCCCO[C@H](CN(C)Cc2ccc3c(c2)OCO3)[C@H](C)CN([C@H](C)CO)C(=O)c2cc(NC(=O)c3ccccc3)ccc2O1,inactive,inactive
C[C@@H]1CN([C@H](C)CO)C(=O)c2cc(NC(=O)Cc3ccccc3)ccc2O[C@@H]1CN(C)C(=O)Nc1cccc2ccccc12,inactive,inactive
C[C@H]1CN([C@@H](C)CO)C(=O)Cc2cc(NS(=O)(=O)c3cccs3)ccc2O[C@H]1CN(C)S(C)(=O)=O,inactive,inactive
C[C@@H]1CN([C@@H](C)CO)C(=O)c2cccc(NS(=O)(=O)c3ccccc3)c2O[C@@H]1CN(C)Cc1ccc(Cl)c(Cl)c1,inactive,inactive
C[C@@H](O)[C@@H](Nc1ncnc2ccccc12)C(=O)O,inactive,inactive
COc1ccccc1NC(=O)N(C)C[C@@H]1Oc2ncc(C#CC(C)C)cc2C(=O)N([C@H](C)CO)C[C@H]1C,inactive,inactive
